Legend:
[1] = tested on: Colletotrichum orbiculare; details: 250 ppm spray (2.5 ml/pot), preventive; 6-10 days after inoculation; control value class
[2] = tested on: Phytophthora infestans; assay type: in vivo; details: 250 ppm spray (2.5 ml/pot), preventive; 5-10 days after inoculation; control value class
[3] = tested on: Magnaporthe grisea; assay type: in vivo; details: 250 ppm spray, preventive; control value class

| Compound | Test H control value (anthracnose on cucumber) [1] | Test F control value (late blight on tomato) [2] | Test A control value (blast on rice) [3] |
| --- | --- | --- | --- |
| CCn1c(-c2c(F)cccc2F)c(-c2cc(OCS(C)(=O)=O)ccc2Cl)ccc1=O [Compound 309] | H (H shows more than 50% of control values) | L (L shows 50% or less of control values) | L (L shows 50% or less of control values) |
| CCn1c(-c2c(F)cccc2F)c(-c2cc(OCCCOC)ccc2Cl)ccc1=O [Compound 310] | L (L shows 50% or less of control values) | L (L shows 50% or less of control values) | H (H shows more than 50% of control values) |
| COCCCOc1ccc(Cl)c(-c2ccc(=O)n(C)c2-c2c(F)cccc2F)c1 [Compound 311] | L (L shows 50% or less of control values) | L (L shows 50% or less of control values) | H (H shows more than 50% of control values) |
| Cn1c(-c2c(F)cccc2F)c(-c2cc(OCS(C)(=O)=O)ccc2Cl)ccc1=O [Compound 312] | L (L shows 50% or less of control values) | L (L shows 50% or less of control values) | L (L shows 50% or less of control values) |
| C=CCOc1ccc(Cl)c(-c2ccc(=O)n(CC)c2-c2c(F)cccc2F)c1 [Compound 313] | H (H shows more than 50% of control values) | L (L shows 50% or less of control values) | H (H shows more than 50% of control values) |
| C=CCOc1ccc(Cl)c(-c2ccc(=O)n(C)c2-c2c(F)cccc2F)c1 [Compound 314] | H (H shows more than 50% of control values) | L (L shows 50% or less of control values) | H (H shows more than 50% of control values) |
| CCn1c(-c2c(F)cccc2F)c(-c2cc(OCC3OCCO3)ccc2Cl)ccc1=O [Compound 315] | L (L shows 50% or less of control values) | H (H shows more than 50% of control values) | H (H shows more than 50% of control values) |
| Cn1c(-c2c(F)cccc2F)c(-c2cc(OCC3OCCO3)ccc2Cl)ccc1=O [Compound 316] | L (L shows 50% or less of control values) | L (L shows 50% or less of control values) | H (H shows more than 50% of control values) |
| CCn1c(-c2c(F)cccc2F)c(-c2cc(OCCC3OCCCO3)ccc2Cl)ccc1=O [Compound 317] | L (L shows 50% or less of control values) | L (L shows 50% or less of control values) | H (H shows more than 50% of control values) |
| Cn1c(-c2c(F)cccc2F)c(-c2cc(OCCC3OCCCO3)ccc2Cl)ccc1=O [Compound 318] | L (L shows 50% or less of control values) | L (L shows 50% or less of control values) | H (H shows more than 50% of control values) |
| COc1cc(OC)c(Cl)c(-c2ccc(=O)n(C)c2-c2c(F)cc(OCC(F)(F)F)cc2F)c1 [Compound 319] | H (H shows more than 50% of control values) | H (H shows more than 50% of control values) | H (H shows more than 50% of control values) |
| CCn1c(-c2c(F)cc(F)cc2F)c(-c2cc(F)ccc2Cl)ccc1=O [Compound 321, 5-(2-chloro-5-fluorophenyl)-1-ethyl-6-(2,4,6-trifluorophenyl)pyridine-2(1H)-one] | H (H shows more than 50% of control values) | H (H shows more than 50% of control values) | H (H shows more than 50% of control values) |
| CCn1c(-c2c(F)cc(F)cc2F)c(-c2cc(F)ccc2Cl)cc(Cl)c1=O [Compound 322] | H (H shows more than 50% of control values) | L (L shows 50% or less of control values) | H (H shows more than 50% of control values) |
| CCn1c(-c2c(F)cccc2F)c(-c2cc(OCC3CCCC3)ccc2Cl)ccc1=O [Compound 323] | L (L shows 50% or less of control values) | L (L shows 50% or less of control values) | H (H shows more than 50% of control values) |
| Cn1c(-c2c(F)cccc2F)c(-c2cc(OCC3CCCC3)ccc2Cl)ccc1=O [Compound 324] | L (L shows 50% or less of control values) | L (L shows 50% or less of control values) | L (L shows 50% or less of control values) |
| CCOCOc1ccc(Cl)c(-c2ccc(=O)n(CC)c2-c2c(F)cccc2F)c1 [Compound 325] | H (H shows more than 50% of control values) | L (L shows 50% or less of control values) | H (H shows more than 50% of control values) |
| CCOCOc1ccc(Cl)c(-c2ccc(=O)n(C)c2-c2c(F)cccc2F)c1 [Compound 326] | H (H shows more than 50% of control values) | L (L shows 50% or less of control values) | H (H shows more than 50% of control values) |
| CCn1c(-c2c(F)cccc2F)c(-c2cccc(Br)c2)ccc1=O [Compound 327] | L (L shows 50% or less of control values) | L (L shows 50% or less of control values) | H (H shows more than 50% of control values) |
| CCn1c(-c2c(F)cccc2F)c(-c2cccc(Br)c2)cc(Cl)c1=O [Compound 328] | L (L shows 50% or less of control values) | L (L shows 50% or less of control values) | H (H shows more than 50% of control values) |
| CCn1c(-c2c(F)cccc2F)c(-c2cc(OC)ccc2Cl)cc(C)c1=O [Compound 329, 5-(2-chloro-5-methoxyphenyl)-6-(2,6-difluorophenyl)-1-ethyl-3-methylpyridine-2(1H)-one] | H (H shows more than 50% of control values) | L (L shows 50% or less of control values) | H (H shows more than 50% of control values) |
| CCn1c(-c2c(F)cccc2F)c(-c2cc(OCOCCOC)ccc2Cl)ccc1=O [Compound 330] | H (H shows more than 50% of control values) | H (H shows more than 50% of control values) | H (H shows more than 50% of control values) |
| COCCOCOc1ccc(Cl)c(-c2ccc(=O)n(C)c2-c2c(F)cccc2F)c1 [Compound 331] | H (H shows more than 50% of control values) | H (H shows more than 50% of control values) | H (H shows more than 50% of control values) |
| CCn1c(-c2c(F)cccc2F)c(-c2ccc(Cl)cc2Cl)ccc1=O [Compound 332] | H (H shows more than 50% of control values) | L (L shows 50% or less of control values) | H (H shows more than 50% of control values) |
| CCn1c(-c2c(F)cccc2F)c(-c2ccc(Cl)cc2Cl)cc(Cl)c1=O [Compound 333] | L (L shows 50% or less of control values) | L (L shows 50% or less of control values) | H (H shows more than 50% of control values) |
| COc1cc(OC)c(Cl)c(-c2ccc(=O)n(CC(F)(F)F)c2-c2c(F)cccc2F)c1 [Compound 335] | H (H shows more than 50% of control values) | L (L shows 50% or less of control values) | H (H shows more than 50% of control values) |
| COc1cc(OC)c(Cl)c(C2=C(c3c(F)cccc3F)N(CC(F)F)C(=O)CC2)c1 [Compound 336] | H (H shows more than 50% of control values) | L (L shows 50% or less of control values) | H (H shows more than 50% of control values) |
| COc1cc(OC)c(Cl)c(-c2ccc(=O)n(CC(F)F)c2-c2c(F)cccc2F)c1 [Compound 337] | H (H shows more than 50% of control values) | H (H shows more than 50% of control values) | H (H shows more than 50% of control values) |
| COc1cc(OC)c(Cl)c(-c2ccc(=O)n(C)c2-c2c(F)cc(OCC(F)F)cc2F)c1 [Compound 338] | H (H shows more than 50% of control values) | H (H shows more than 50% of control values) | H (H shows more than 50% of control values) |
| Cn1c(-c2c(F)cc(F)cc2F)c(-c2cc(F)ccc2Cl)ccc1=O [Compound 339] | H (H shows more than 50% of control values) | H (H shows more than 50% of control values) | H (H shows more than 50% of control values) |
| Cn1c(-c2c(F)cc(F)cc2F)c(-c2cc(F)ccc2Cl)cc(Cl)c1=O [Compound 340] | H (H shows more than 50% of control values) | L (L shows 50% or less of control values) | H (H shows more than 50% of control values) |

Reference: patent US10299477B2 (priority 2015, dated 2019)
